Experimental data reported in the supplement of paper PMC8728848.
Some of the results follow.

Experiments:
Experiment in all cases: glycan array binding signal (z-score within array); higher = stronger binding
Details in all cases: glycan notation: IUPAC condensed, linker removed
[1] = target: Neu5Ac(a2-8)Neu5Ac
Summary of the method: (§1)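 The binding signal is a Z-score computed within each array and averaged over linkers. Arrays of the same protein sequence at different concentrations or buffers were also averaged together. Data originate from 3228 arrays in the Consortium for Functional Glycomics database, kept only where the protein sequence was available.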

[2] = target: Neu5Ac(a2-8)Neu5Ac(a2-3)Gal(b1-4)Glc
Summary of the method: as §1

[3] = target: Neu5Ac(a2-8)Neu5Ac(a2-3)[GalNAc(b1-4)]Gal(b1-4)Glc
Summary of the method: as §1

[4] = target: Neu5Ac(a2-8)Neu5Ac(a2-8)Neu5Ac
Summary of the method: as §1

[5] = target: Neu5Ac(a2-8)Neu5Ac(a2-8)Neu5Ac(a2-3)Gal(b1-4)Glc
Summary of the method: as §1

[6] = target: Neu5Ac(a2-8)Neu5Ac(a2-8)Neu5Ac(a2-3)[GalNAc(b1-4)]Gal(b1-4)Glc
Summary of the method: as §1

[7] = target: Neu5Ac(a2-8)Neu5Ac(a2-8)Neu5Ac(a2-8)Neu5Ac(a2-3)[GalNAc(b1-4)]Gal(b1-4)Glc
Summary of the method: as §1

[8] = target: Neu5Ac(b2-6)Gal(b1-4)GlcNAc
Summary of the method: as §1

[9] = target: Neu5Ac(b2-6)GalNAc
Summary of the method: as §1

[10] = target: Neu5Ac9Ac(a2-3)Gal(b1-3)GlcNAc
Summary of the method: as §1

[11] = target: Neu5Ac9Ac(a2-3)Gal(b1-4)GlcNAc
Summary of the method: as §1

[12] = target: Neu5Ac9Ac(a2-6)Gal(b1-4)GlcNAc
Summary of the method: as §1

[13] = target: Neu5Gc(a2-3)Gal(b1-3)GlcNAc
Summary of the method: as §1

[14] = target: Neu5Gc(a2-3)Gal(b1-3)[Fuc(a1-4)]GlcNAc
Summary of the method: as §1

[15] = target: Neu5Gc(a2-3)Gal(b1-4)Glc
Summary of the method: as §1

[16] = target: Neu5Gc(a2-3)Gal(b1-4)GlcNAc
Summary of the method: as §1

[17] = target: Neu5Gc(a2-3)Gal(b1-4)[Fuc(a1-3)]GlcNAc
Summary of the method: as §1

[18] = target: Neu5Gc(a2-6)Gal(b1-4)GlcNAc
Summary of the method: as §1

[19] = target: Neu5Gc(a2-6)GalNAc
Summary of the method: as §1

[20] = target: Neu5Gc(b2-6)Gal(b1-4)GlcNAc
Summary of the method: as §1

B1: exo-alpha-sialidase (Propionibacterium acnes), Q6A7G1 (protein)
chain: GSHMSGRAPAPVAATTQPKLVTGDITSTDQSGTNLFFGKKIVRNARGAIMKVDRTWPAAVPAPLPDVRADSSTRMLLGPVVDLAVNEHPEGVFYRIPALATASNGDLLASYDLRPGSAGDAPNPNSIVQRRSRDNGRTWGPQTVIHAGTPGRRKVGYSDPSYLVDPATGRILNFHVKSYDRGFATSEVGTDPDDRHVLHAEVSTSTDNGHTWTHRDITREITSDPTTRTRFVASGQGIALLHGPHAGRLIAQMTVRNSVGQQAQSIYSDDHGITWHAGNPVGRMMDENKVVELSDGTLMLNSRDAARSGRRKVAYSQDGGLTWGPVKLVDDLIDPTNNAQIIRAYPNARAGSAKARILLFTNARNATERVNGTLSVSCDDGRTWVSHQTYMPGEVGYTTAAVQSDGALGVLWERDGIRYSTIPMGWLNSVCPLAPSGRPTSGKPTSGTSLPPTAT
Q: How did the “glycan array binding signal (z-score)” value [1] turn out when B1 was run?
A: The value was 0.678.

Q: What about the “glycan array binding signal (z-score)” value [2] of the same binder?
A: Its value is 0.71.

Q: What about the “glycan array binding signal (z-score)” value [3] of the same binder?
A: The value was 0.035.

Q: And the “glycan array binding signal (z-score)” value [4]?
A: The value was 1.51.

Q: And the “glycan array binding signal (z-score)” value [5]?
A: The value was 1.32.

Q: And the “glycan array binding signal (z-score)” value [6]?
A: The value was 0.406.

Q: What about the “glycan array binding signal (z-score)” value [7] of the same binder?
A: Its value is 1.41.

Q: And the “glycan array binding signal (z-score)” value [8]?
A: Its value is -0.348.

Q: And the “glycan array binding signal (z-score)” value [9]?
A: Its value is -0.351.

Q: What about the “glycan array binding signal (z-score)” value [10] of the same binder?
A: The value was 0.072.

Q: What about the “glycan array binding signal (z-score)” value [11] of the same binder?
A: Its value is -0.016.

Q: What about the “glycan array binding signal (z-score)” value [12] of the same binder?
A: The value was -0.195.

Q: What about the “glycan array binding signal (z-score)” value [13] of the same binder?
A: The value was 0.043.

Q: What about the “glycan array binding signal (z-score)” value [14] of the same binder?
A: The value was -0.314.

Q: What about the “glycan array binding signal (z-score)” value [15] of the same binder?
A: Its value is -0.234.

Q: What about the “glycan array binding signal (z-score)” value [16] of the same binder?
A: Its value is -0.041.

Q: What about the “glycan array binding signal (z-score)” value [17] of the same binder?
A: The value was -0.196.

Q: And the “glycan array binding signal (z-score)” value [18]?
A: Its value is -0.291.

Q: And the “glycan array binding signal (z-score)” value [19]?
A: The value was -0.24.

Q: What about the “glycan array binding signal (z-score)” value [20] of the same binder?
A: Its value is -0.367.
